The campaign covered roughly 310,000 compounds. About 2,200 (0.71%) showed an effect of 50% or more. Effects have a minus sign here. Some of the results follow.
The compounds below were run against human ether-à-go-go-related gene (hERG) potassium channel (human, UniProt Q12809) (assay: primary screen, population patch clamp on CHO cells stably expressing hERG).
Sequence of human ether-à-go-go-related gene (hERG) potassium channel (Q12809 whole entry, looked up): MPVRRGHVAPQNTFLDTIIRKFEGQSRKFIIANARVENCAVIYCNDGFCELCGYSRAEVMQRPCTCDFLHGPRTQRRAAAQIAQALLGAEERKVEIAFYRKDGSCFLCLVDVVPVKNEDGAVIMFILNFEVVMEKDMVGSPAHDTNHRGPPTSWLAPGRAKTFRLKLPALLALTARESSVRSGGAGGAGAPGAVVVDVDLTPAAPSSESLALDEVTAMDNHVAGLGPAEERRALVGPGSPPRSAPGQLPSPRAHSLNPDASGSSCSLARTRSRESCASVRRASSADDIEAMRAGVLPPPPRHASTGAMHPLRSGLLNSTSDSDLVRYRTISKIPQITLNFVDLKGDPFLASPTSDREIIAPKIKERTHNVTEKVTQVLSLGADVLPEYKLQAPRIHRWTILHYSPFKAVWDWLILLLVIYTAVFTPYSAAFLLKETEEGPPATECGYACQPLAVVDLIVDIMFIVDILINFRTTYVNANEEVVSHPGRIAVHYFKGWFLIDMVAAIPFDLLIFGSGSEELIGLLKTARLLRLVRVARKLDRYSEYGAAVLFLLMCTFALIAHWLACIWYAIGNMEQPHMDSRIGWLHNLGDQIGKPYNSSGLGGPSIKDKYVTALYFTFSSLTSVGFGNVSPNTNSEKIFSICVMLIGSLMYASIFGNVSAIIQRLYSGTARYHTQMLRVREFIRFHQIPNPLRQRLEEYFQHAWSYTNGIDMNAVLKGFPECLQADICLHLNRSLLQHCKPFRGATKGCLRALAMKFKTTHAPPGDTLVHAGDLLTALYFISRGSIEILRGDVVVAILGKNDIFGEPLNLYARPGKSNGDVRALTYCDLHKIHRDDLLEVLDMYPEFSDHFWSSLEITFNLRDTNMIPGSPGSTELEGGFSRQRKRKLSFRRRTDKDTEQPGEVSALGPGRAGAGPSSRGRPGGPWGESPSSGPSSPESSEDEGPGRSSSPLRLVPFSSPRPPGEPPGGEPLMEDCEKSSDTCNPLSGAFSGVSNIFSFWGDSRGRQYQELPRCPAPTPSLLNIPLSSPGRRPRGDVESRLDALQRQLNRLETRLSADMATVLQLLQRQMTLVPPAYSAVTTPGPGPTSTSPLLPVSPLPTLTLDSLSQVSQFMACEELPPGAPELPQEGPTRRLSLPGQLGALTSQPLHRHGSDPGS

| Compound | hERG current change (%, negative = inhibition) at 1uM [%] |
| --- | --- |
| O=C(O)CC(CCc1ccccc1)OC1OC(CO)C(O)C(O)C1O (stereo not shown) | 12.2 |
| Cc1cccc(NC2=C(Cl)C(=O)OC2NC(=O)c2ccccc2)c1 (stereo not shown) | 1.26 |
| Clc1ccc(-c2cc(C3CCNCC3)[nH]n2)cc1 | 2.58 |
| COCCNC(=O)COc1ccc(Oc2ccccc2)cc1 | 5.92 |
| CS(=O)(=O)N1CCc2cc(-c3csc(NC(=O)C(c4ccccc4)c4ccccc4)n3)ccc21 | 8.72 |
| Clc1ccc(OCc2nc(-c3ccncc3)no2)c(Br)c1 | 8.56 |
| COC(=O)C1=C(C)NC(=S)N(C(C)=O)C1c1ccccc1 (stereo not shown) | -3.49 |
| CC1CCCC(NC(=O)CCCn2c(=S)[nH]c3ccccc3c2=O)C1C (stereo not shown) | 5.25 |
| O=C(CNCCC1=CCCCC1)Nc1ccccc1N1CCCCC1.O=C(O)C(=O)O | 11.8 |
| CC1CCN(C(=O)c2[nH]cnc2C(=O)NCc2ccc(CNC(=O)OC(C)(C)C)cc2)CC1 | 13.2 |
| CCOC(=O)CCn1c2nc(C)cc(C)c2c(=O)n1-c1ccccc1 | 2.21 |
| O=C(NC(=S)NCC1CCCO1)c1cccs1 (stereo not shown) | 18.2 |
| NC(=O)Cn1c(O)c(N=NC(=O)CNC(=O)/C=C/c2ccccc2)c2ccccc21 | 14.6 |
| CN(C)c1ccc(-c2sc(Nc3ccccc3)n[n+]2-c2ccc(F)cc2)cc1.[Cl-] | -15 |
| N#Cc1sc2nc(-c3cccs3)cc(-c3ccc(F)cc3)c2c1N | 12.8 |
| COc1cc(OC)cc(C(=O)NCC2CCCO2)c1 (stereo not shown) | 9.15 |
| NS(=O)(=O)c1ccc(CCNC(=O)CC(NC(=O)c2ccccc2Cl)c2ccccc2)cc1 (stereo not shown) | 10.4 |
| CCOc1ccccc1C(=O)N1CCN=C1SCc1cccnc1 | 0.321 |
| Cc1ccc(OCC(=O)Nc2ccon2)c([N+](=O)[O-])c1 | 10.8 |
| COc1ccc(Cl)cc1NC(=O)COC(=O)C(CC(C)C)N1C(=O)C2CC=CCC2C1=O (stereo not shown) | 11.7 |
| CC1CCC(C(C)C)C(OCC(O)CN2CCCC(C)C2)C1.Cl (stereo not shown) | 1.25 |
| Cc1sc(NC(=O)Cc2ccc3c(c2)OCO3)nc1-c1ccc2c(c1)CCN2C(=O)c1ccc(F)cc1 | -0.224 |
| COc1ccccc1Cc1noc(C(C)(C)NC(=O)c2ccccc2)n1 | 5.38 |

| Compound | hERG current change (%, negative = inhibition) at 1uM [%] |
| --- | --- |
| CC(C)(C)c1ccc(/C=N/n2cnnc2)cc1 | 15 |
| COc1ccc(/C=N\NC(=O)CCN2CCN(c3ccccc3)CC2)cc1OC | -28.9 |
| CCOc1cccc(OCCCOc2cccc3cccnc23)c1 | 8.16 |
| COc1ccc(CN2C3CCCC2CC(NC(=O)/C=C/c2ccccc2)C3)cc1 (stereo not shown) | -84.2 |
| CC(C)(C)CC(=O)Nc1ccc(-c2cn3cccnc3n2)cc1 | 8.99 |
| CSc1ncc(Cl)c(C(=O)C(C#N)c2nc3c(C)cc(C)cc3c(=O)[nH]2)n1 (stereo not shown) | 13.6 |
| Cc1ccc2cccc(SCC(=O)NCc3ccco3)c2n1 | 11.5 |
| Cc1cccc(NC2=NC3(CCCCC3)N=C(N)N2)c1C | 11.6 |
| O=C(COc1ccc(S(=O)(=O)N2CCOCC2)cc1Cl)NC1CC1 | -13.5 |
| CC(=O)Nc1ccc2c(c1)CCc1ccccc1-2 | 12.1 |
| O=C(NCc1cccnc1)C1CCCN1S(=O)(=O)c1ccc(Cl)cc1 (stereo not shown) | -3.54 |
| C#CCN(C(=O)c1ccc(OC)c(OC2CCN(C(C)C)CC2)c1)C1CCCCC1 | -12.1 |
| Cc1cc(C)n(CCc2nc(-c3ccc(C(C)(C)C)cc3)cs2)n1 | 9.29 |
| COc1cc(C2C=C(Nc3ccccc3)C(=O)N2c2ccccc2)ccc1O (stereo not shown) | 5.01 |
| Nc1nc(-c2ccc(F)cc2)cs1 | -0.647 |
| CC(=O)C12OC1CC1C3CCC4=CC(=O)CCC4(C)C3CCC12C (stereo not shown) | 4 |
| CCOC(=O)N1CCC(NC(=O)c2cc3c(=O)[nH]c4ccccc4c3n2C)CC1 | -6.01 |
| COC(=O)c1ccc(C2C(C(C)=O)=C(O)C(=O)N2CCO)cc1 (stereo not shown) | 6.53 |
| CC(=O)Nc1c2c(nn1-c1cccc(Cl)c1)CS(=O)(=O)C2 | 8.36 |
| Cc1cc(C(=O)NC(C)c2ccc3c(c2)OCO3)cs1 (stereo not shown) | -3.5 |
| CCN(CC)C(=O)c1cccc2c1C(=O)c1ccccc1-2 | 9.86 |
| CC1CCCN(C(=O)CCS(=O)(=O)c2cc3c(cc2Cl)NC(=O)CO3)C1 (stereo not shown) | -1.43 |
| Cc1nn(C)c(C)c1CNC(=O)Nc1ccc(Cl)cc1 | 4.96 |

| Compound | hERG current change (%, negative = inhibition) at 1uM [%] |
| --- | --- |
| COc1ccc(/C=N/NS(=O)(=O)c2ccccc2)cc1OS(=O)(=O)c1ccccc1 | 13.8 |
| N=C(N)c1ccc(/C=C/c2ccc(C(=N)N)cc2O)cc1.O=S(=O)(O)CCO | 8.45 |
| O=C(Nc1ccc(S(=O)(=O)Nc2cnc3ccccc3n2)cc1)c1ccccc1Br | 11.6 |
| O=C(COc1ccccc1)NC1CCCN(Cc2ccccc2F)C1 (stereo not shown) | 3.63 |
| CN(C(=O)CS(=O)(=O)Cc1ccccc1Cl)c1ccccc1 | 14.7 |
| C=CCn1c(NCc2c[nH]c3ccccc23)nc2ccccc21 | 2.41 |
| Cc1cc(C)n(-c2nc(C)nc3c2cnn3-c2ccccc2)n1 | 14.5 |
| CCOc1ccc(N(CC(=O)NC2CCCCCC2)S(=O)(=O)c2c(C)noc2C)cc1 | -8.01 |
| COc1cc2c(cc1OC)C(c1cccs1)N(C(=S)NC(C)C)CC2 (stereo not shown) | 10.7 |
| Cc1cc(S(=O)(=O)N2CCN(c3ccccc3O)CC2)c(C)s1 | 8.12 |
| CCCC[C@H](CN[C@@H](CNC)[C@H](C)CC)NCCC12CCC(CC1)C2 | 14.1 |
| CCS(=O)(=O)N1CCN(Cc2nc3ccccc3c(=O)[nH]2)CC1 | 4.91 |
| COC(=O)C(C(=O)OC)C(C(=O)OC)C(C(=O)OC)C(=O)OC | 2.29 |
| COC(=O)N/N=C/c1cn(CCCOc2ccc(C)cc2)c2ccccc12 | 3.27 |
| O=C(CCn1ccnc1)Nc1cc(Cl)ccc1O | 13 |
| CC1CC(C)CN(CCCNC(=O)C2CCC(=O)N2C2CCCC2)C1 (stereo not shown) | 11.8 |
| CC(C(=O)Nc1ncc([N+](=O)[O-])s1)N1C(=O)c2ccccc2S1(=O)=O (stereo not shown) | 7.88 |
| COc1cccc(C(=O)Nc2ccc(NC(=O)C3CC=CCC3C(=O)O)cc2)c1 (stereo not shown) | 17.4 |
| COc1c(Br)cc(/C=N/n2c(-c3ccccc3)n[nH]c2=S)c(O)c1Br | 20.7 |
| CC(O)CSc1nc2c(c(=O)[nH]c(=O)n2C)n1Cc1ccccc1 (stereo not shown) | -18.4 |
| CCN(CC(=O)Nc1c(F)cccc1F)C(=O)C(C)SCc1nc2sc(C)c(C)c2c(=O)[nH]1 (stereo not shown) | -10.3 |
| Cc1ccc(Cl)cc1N1CCN(C(c2ccc(C#N)cc2)c2nnnn2C2CCCC2)CC1 (stereo not shown) | 11.7 |
| CC(=O)N1c2ccc(S(=O)(=O)NCC3CCC(C(=O)Nc4cc(C)ccn4)CC3)cc2CC1C (stereo not shown) | 5.08 |

| Compound | hERG current change (%, negative = inhibition) at 1uM [%] |
| --- | --- |
| CC(/C=N/NC(=O)c1cc(-c2cccn2C)n[nH]1)=C\c1ccccc1 | 9.77 |
| CCn1c(SCC(=O)NNC(=O)c2ccc(C)cc2)nnc1C(C)C | 17.5 |
| COc1cc(C#N)c(NC(=S)N2CCOCC2)cc1OC | 13.5 |
| Oc1[nH]c2ccc(Br)cc2c1N=Nc1nn[nH]n1 | 9.76 |
| COC(=O)c1cc(C)nc(N)c1C#N | -1.72 |
| CN(C)/C=C(/C(=O)c1ccc(Cl)c(Cl)c1)c1nnnn1-c1ccccc1 | 11.4 |
| O=C(CCCOc1ccc(Cl)cc1Cl)N/N=C/c1ccccc1O | 29.1 |
| CCCCCCCNC(=O)C1(CC2CC(c3ccccc3)=NO2)CCNCC1 (stereo not shown) | -26.2 |
| O=C(Nc1ccc2c(c1)OCCO2)c1ccccn1 | 13.3 |
| COc1ccc(-c2nc(NC(C)=O)sc2-c2ccc(OC)cc2)cc1 | 17.6 |
| COc1ccc(C(=O)Nc2ccc(O)cc2C(=O)O)cc1 | 16.6 |
| COc1ccc(Cc2nnc(NC(=O)C3CC(=O)N(c4ccc(OC)cc4)C3)s2)cc1 (stereo not shown) | 11.7 |
| O=C(O)CCCCC1CCSS1 (stereo not shown) | 6.98 |
| COc1ccc(C(=O)Nc2ccc(NC(=O)C3CCCCC3)nc2)cc1 | 29.4 |
| COc1ccccc1NC(=O)c1ccc2nc(C)sc2c1 | 8.56 |
| Cc1cc(N2CCCCC2)nc2ccccc12 | -3.55 |
| O=C(c1ccccc1)c1coc2ccc(O)c(Cl)c12 | -4.28 |
| COc1ccccc1-c1nnc(SCC(=O)O)n1-c1ccccc1 | 5.66 |
| Cc1cc(NCCOCCO)n2c(nc3ccccc32)c1C#N | 7.03 |
| CSc1ccccc1-n1nnnc1SCc1ccccc1 | -17.1 |
| CCc1ccc(OCc2nnc(SCC(=O)NC3CCCCC3)o2)cc1 | 14.6 |
| COc1ccccc1CNC(=O)c1ccc(-c2ccccc2C(F)(F)F)o1 | 9.9 |

From PMC4336329 (PLoS ONE, 2015)
